Reference: the supplement of paper PMC4466236
Over roughly 33,000 sequences, “E-score (dimensionless, -0.5 to 0.5)” has its median near -0.058; the highest 2% begin near 0.35. Some of the results follow.

These sequences were tested on MvaT (assay: PBM 8-mer E-score (mean of HK and ME arrays) (E-score (dimensionless, -0.5 to 0.5)); higher = stronger relative binding preference; most listed sequences are background and not binding sites).
How it was run: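 Full-length P. aeruginosa MvaT, with glutathione S-transferase fused to its N-terminus (cloned into pTH6838 by isothermal assembly), was tested by protein binding microarray using a previously described protocol. Two universal double-stranded 60-mer arrays (ME and HK) were used, each with a constant 25-mer primer region and a variable 35-mer region covering all 8-mers. The rank-based 8-mer E-score (-0.5 to 0.5) is the mean of the two arrays, parsed with a custom Python script.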

Sequence | PBM 8-mer E-score
CGGATCCG | -0.222
GGCCCTAA | -0.109
CTAGTCAG | -0.134
GCCGCGGA | -0.15
CGGGCAGC | -0.218
CACCCGCG | -0.348
AGCCGTTA | 0.0718
GCGGGTCA | -0.119
GAGACTAA | 0.0618
ACATACCT | 0.0235
GCGATTCC | -0.0999
GTACTGAC | 0.0225
AAATTTGA | 0.189
CTTACAAG | 0.0714
AACGCTCT | -0.143
AGGAGGTC | -0.369
CAGCCCAG | -0.247
CCCCGTTA | 0.0421
CGATCTTC | -0.0568
AACTACGG | 0.0587
ATTGAAGG | -0.0342
CCTGTGAC | -0.181

Sequence | PBM 8-mer E-score
AAGCTGAC | -0.251
CCGGCATC | -0.184
CAAACGGC | -0.0341
AATAGCGG | 0.153
GAGTATTA | 0.269
CCTTCGTC | -0.332
CTCCGCCC | -0.181
GCAGAGTA | -0.0809
GAGATTGC | -0.00565
AGCGTAGC | -0.267
AAAAGGAC | -0.0105
AACCACTG | -0.0219
ACCGACCC | -0.194
GAGCCCGA | -0.213
ACCGCAGT | -0.061
AGCCCGCA | -0.172
ACCTGAGA | -0.156
CCCTCTAC | -0.296
AATGATTC | 0.144
AAATGCCG | 0.0241
CCGAACCA | -0.0552
TCGGAGCA | -0.0951

Sequence | PBM 8-mer E-score
CCTAAGGA | -0.238
AGGCGACT | -0.197
AGAAAGCG | -0.000845
ACTTCGGA | -0.0627
CCCTATGC | -0.147
CTTACTCC | -0.122
ATGGGTAA | 0.103
GTGGCAAC | -0.0649
ACTCCCCA | -0.296
AGTGTCTA | 0.101
CCGCCCCA | -0.285
CGTAATCA | 0.0215
ACTTACAA | 0.307
AAGAGTAA | 0.137
ATTCCTCG | 0.173
AACCGTAT | -0.00352
CAACACCG | -0.0186
CTATAGTC | -0.0729
TAGTAAGA | 0.135
ATAATAAG | 0.43
CTCGCCCC | -0.0975
GTGTTGTA | 0.187

Sequence | PBM 8-mer E-score
CAACACCC | -0.0758
CGGCGGTC | -0.246
CCTCACTC | -0.172
AGGCTAAC | 0.0586
GGACATAA | 0.167
AGCACCCC | -0.116
AACAAGTC | -0.056
AAGACATA | 0.152
CTCGGGGA | -0.116
CTCCAGAA | -0.0856
ACATCTAT | 0.174
CTCGCAAG | -0.0341
AGTATTAA | 0.328
CAACTGAA | -0.0474
ATGGGGCA | -0.082
GGAGATCA | -0.201
ACCCAGGC | -0.124
CCGCCGAA | -0.202
CGCGGGAA | -0.0121
GTGAGTTA | 0.183
